Reference: article PMC8694192, “Synthesis and biological evaluation of new derivatives of thieno-thiazole and dihydrothiazolo-thiazole scaffolds integrated with a pyrazoline nucleus as anticancer and multi-targeting kinase inhibitors” (RSC Advances, 2021)

System: MCF-7 cells
Assay: DNA-flow cytometric cell cycle analysis (PI staining)
Assay type: cell-based, human
Conditions: MCF-7, 24 h, 4.021 μM for compound 1, 8.35 μM for 3c
Procedure: More details in the ESI. ^†
DMSO was utilized as a negative control. The stages of cell cycle were being detected via flow cytometry after propidium iodide (PI) staining followed by RNAse treatment.[63] In this experiment, MCF-7 cells were incubated with a concentration of 4.021 μM for compound 1 and with 8.35 μM for compound 3c for 24 h. The flow cytometry approach was used to quantify cell populations at various stages of the cell cycle (pre-G1, G1, S and G2/M phases).
screening of final compounds.
using 1 μM concentration of ATP.
1.2.4. Annexin V-FITC apoptosis assay
Briefly, cells were seeded

With `Cc1c(Nc2nc3c(C(=O)NN)c(N)sc3s2)c(=O)n(-c2ccccc2)n1C` [Compound 3c, 5-Amino-2-((1,5-dimethyl-3-oxo-2-phenyl-2,3-dihydro-1H-pyrazol-4-yl)amino) thieno[3,2-d]thiazole-6-carbohydrazide] the “percentage of cells at G2/M” value was 3.38% and the “percentage of cells at S phase” value was 35.18%.
